# Measurements published in PubChem BioAssay AID1347416 (National Center for Advancing Translational Sciences (NCATS), 2020).
# About 1,600 (39%) of roughly 4,100 compounds were called active. Inconclusive results, whose numbers are uncertain, are shown with a selection of clear calls. The call rests on the fitted dose curve; in most records, active means well fitted inhibition curve with a large enough effect; inconclusive means small, poorly fitted or top-dose-only effect; inactive means no such curve, though single readings can be large or run the other way. Potencies of inconclusive entries are doubtful fits and often do not repeat.
# Assay: qHTS Validation assay for Inhibitors of Plasmodium falciparum Dd2 growth in vitro; further: nearly all actives have a fitted effect of over 70% in size
# Conditions: P. falciparum Dd2 in RBCs, SYBR Green growth, 72 h; activity change, negative = inhibition: at 28.7 µM (top of the series) unless noted
# From the text: Malaria, a parasitic disease spread to humans through the bite of a Plasmodium infected Anopheles mosquito, continues to be a global health burden affecting millions of people, with an estimated 228 million cases and 405,000 deaths in 2018. Concerns about safety and limitations of current antimalarial treatments strongly emphasize the need to develop new therapeutic options. The scarce number of chemotypes and validated drug targets with efficacy against the liver stage, have hindered development of new antimalarials. To address this, a chemoprophylactic drug discovery effort was conducted through a combined phenotypic high-throughput asexual blood stage and liver stage screen, providing a robust foundation to identify liver-stage active lead chemotypes. Compounds were initially screened against Plasmodium falciparum Dd2 strain parasites using a in vitro SYBRGreen-1 based 72 hr proliferation assay to identify novel chemotypes to advance to liver stage assays. NIH/NCATS Early Translation Branch Assay Submitter (PI): Anton Simeonov Ph.D.
# […] Assay Protocol: PROTOCOL TABLE (as described by Inglese et al., 2007) SEQUENCE No. (e.g., 1, 2, 3, etc.); PARAMETER (e.g., Cells, Incubation, Reagent, etc.); VALUE; DESCRIPTION SEQUENCE, Parameter, Description 1; Reagent; 3 uL complete malaria growth medium, 1536 TC treated Black clear bottom plate 2; Controls; 23 nL positive control artesunate (300 nM final) to column 1; Neutral control DMSO to columns 2-4 3; Compound; 23 nL of compounds in dose response concentration (29 uM to 0.5 nM final) 4; Reagent; 5 uL malaria infected red blood cells (2.5% hematocrit final, 0.3% parasitemia 5; Time; 72 hours at 37C (5% O2, 5% CO2, 90% N2; 95% Rh) 6; Reagent; 2 uL lysis buffer/SYBRGreen-1, 25 sec shake immediately following dispense 7; Time; ~16 hours at 37C (5% O2, 5% CO2, 90% N2; 95% Rh) 8; Detector; EnVision (PerkinElmer) bottom read at 485/14nm excitation and 535/25 nm emission NOTES (numbers refer to sequence above): 1; Complete Malaria Growth Media: 1X RPMI-1640 w/L-glutamine, 5.5g/L Albumax II, 367 uM Hypoxanthine, 25 mM HEPES, 0.25% Sodium Bicarbonate, 35 uM Gentamicin sulfate 2; Controls were added using the Kalypsis Pintool (Wako USA) equipped with 1536 pinhead 3; Compounds were added in a 7-point, titration with a high final concentration of 29 uM by Pintool from seven inter-plate titrations of library plates and two DMSO control plates at the beginning and end (see Yasgar et al., 2008). 4; Red blood cells infected with Plasmodium falciparum Dd2 parasites were used. 6; Lysis buffer: 20 mM Tris-HCl, 10 mM EDTA, 0.16% Saponin, 1.6% Triton-X, 10X SYBR Green. REFERENCE: Inglese J, Shamu CE, Guy RK. 2007. Reporting data from high-throughput screening of small-molecule libraries. Nat Chem Biol. doi:10.1038/nchembio0807-438 Yasgar A, Shinn P, Jadhav A, Auld D, Michael S, Zheng W, Austin CP, Inglese J, Simeonov A. 2008. Compound Management for Quantitative High-Throughput Screening. J Lab Autom 13:79-89. doi:10.1016/j.jala.2007.12.004
# On the % scale 0 is the no-effect control and ±100 the full control effect; potency means the concentration at half of the fitted maximal effect; tags describe the fitted curve by direction and shape.
SMILES,Potency,"activity change, negative = inhibition"
COCC(=O)N1CCc2cn(CC(C)C)c3cccc(c23)C1,"inconclusive: 16.8 µM [inhibitor, partial curve, poor fit]",–
CCCCc1ccc(NC(=O)CSC2=C(C#N)C(c3ccco3)C3=C(CCCC3=O)N2)cc1 (centres undefined),–,inactive: -11.9%
Cc1ccc(S(=O)(=O)NC(=O)Nc2ccc(N(C)C)cc2)cc1,active: 1.33 µM,–
CS(=O)(=O)N1CCC(C2CCN(C(=O)Cc3ccc(Cl)cc3)C2)CC1 (centres undefined),–,inactive: -3.31%
Cc1noc(C)c1-c1cc2c(cc(C)n2C)c(NCCCn2ccnc2)n1,"inconclusive: 34.4 µM [inhibitor, single point]",–
NC1=NC(c2ccccc2C(F)(F)F)N(c2ccc(F)c(Cl)c2)C(N)=N1 (centres undefined),"inconclusive: 11.9 µM [inhibitor, partial curve]",–
CC1(C)C(=O)N(Cc2ccccc2)[C@H]2CN(CC3CCOCC3)C[C@@H]2[S+]1(=O)[O-],–,inactive: 7.69% [at 43.1 µM]
Cc1ccc(S(=O)(=O)N2CCC(OC3CCN(Cc4ccccc4)CC3)CC2)c(C)c1,"inconclusive: 16.8 µM [inhibitor, single point]",–
COCCn1c(C)cnc1CC1CCCN(Cc2ccc(F)cc2F)C1 (centres undefined),"inconclusive: 15 µM [inhibitor, partial curve, poor fit]",–
CCc1ccc(NC(=O)N2CC(C(=O)N(C)C)C3(CCOCC3)C2)cc1 (centres undefined),–,inactive: 2.4%
Cc1cc2cc(-c3c(C)noc3C)nc(N(C)CCN(C)C)c2o1,"inconclusive: 12.2 µM [inhibitor, partial curve]",–
CCOc1ccc2[nH]c3ncccc3c(=O)c2c1,"inconclusive: 13.3 µM [inhibitor, single point]",–
Cc1ccc(C)c(N2CCN(C(=O)c3cc(S(=O)(=O)N4CCCCCC4)cn3C)CC2)c1,"inconclusive: 10.6 µM [inhibitor, partial curve]",–
O=[N+]([O-])c1ccc(N2CCN(C(=S)NC3CCCCC3)CC2)cc1,active: 1.88 µM,–
COCCOc1cc(-c2noc([C@@H]3CCCN3CC3CC3)n2)ccn1,active: 15.3 µM,–
Cc1noc(C)c1S(=O)(=O)NCCc1ncc(C)n1C1CCC1,"inconclusive: 18.8 µM [inhibitor, single point]",–
COCC(=O)N1CCc2nc(-c3ccccc3)nc(-c3ccc(Cl)cc3)c2C1,–,inactive: 0%
Fc1ccc(Nc2nc(Nc3ccc(F)cc3)nc(N3CCOCC3)n2)cc1,"inconclusive: 21.1 µM [inhibitor, single point]",–
O=C(O)COc1ccc(-c2nccc3c2C(=O)N(Cc2ccccc2)CC(COc2cccc(C(F)(F)F)c2)O3)cc1 (centres undefined),"inconclusive: 13.3 µM [inhibitor, single point]",–
CN1c2cccnc2CN(CC2CCCCC2)CC[C@H]1CO,"inconclusive: 34.4 µM [inhibitor, partial curve, poor fit]",–
COc1cc2c3nnc(-c4ccc(F)cc4)c-3cn(Cc3ccccc3F)c2cc1OC,active: 3.76 µM,–
CCn1c(=O)c2cc(C(=O)N(CC(C)C)CC(C)C)sc2c2ccccc21,"inconclusive: 10.6 µM [inhibitor, partial curve]",–
CCCn1c(=N)c(C(=O)NC2CCCC2)cc2c(=O)n3cccc(C)c3nc21,active: 5.96 µM,–

SMILES,Potency,"activity change, negative = inhibition"
CCc1cc(=O)n(CC(=O)Nc2cccc(C(C)C)c2)c(N2CCOCC2)n1,"inconclusive: 16.8 µM [inhibitor, single point]",–
CNC(=O)CCn1ncc2cc(OCc3ccccc3-c3ccc(OC)cc3Cl)ccc21,"inconclusive: 16.8 µM [inhibitor, partial curve]",–
O=C(NCc1cccs1)c1nc(-c2cccc(C(F)(F)F)c2)c2cnccn12,"inconclusive: 9.44 µM [inhibitor, partial curve]",–
CCOc1ccccc1NC(=O)c1c(NC(=O)COc2ccccc2)sc2c1CCCCC2,–,inactive: 0%
CCn1cc(C(=O)N2CCN(c3cc(Cl)ccc3C)CC2)c2cc(OC)c(OC)cc2c1=O,"inconclusive: 15 µM [inhibitor, single point]",–
COc1ccc(CN2C[C@H]3CN(Cc4c[nH]c5ccccc45)CCN3C2=O)cc1,active: 3.85 µM,–
Cn1cc(C(=O)NCC2CN([S+](=O)([O-])c3ccccc3Cl)CC23CN(c2ccccc2)C3)cn1 (centres undefined),–,inactive: -15.3%
CCCCCNc1nc2sc3c(c2c(=O)n1-c1cccc(Cl)c1)CCN(C)C3,active: 7.5 µM,–
CCCCC(=O)NC(c1cccs1)c1cc(Cl)c2cccnc2c1O (centres undefined),"inconclusive: 21.1 µM [inhibitor, single point]",–
COc1cc(C#Cc2c(-c3cncn3C)n(C)c3ccc(-c4ccc5[nH]ccc5c4)cc23)cc(OC)c1,active: 2.37 µM,–
CC(=O)N(C1CC1)C1CCOC2(CCN(C(=O)c3n[nH]c4ccccc34)CC2)C1 (centres undefined),"inconclusive: 16.8 µM [inhibitor, single point]",–
COc1ccc(OCC(=O)NCC2(N3CCN(C)CC3)CCCCC2)cc1,"inconclusive: 1.88 µM [inhibitor, full curve]",–
O=S(=O)(c1ccccc1)N1CCCC(Cc2noc(-c3ccncc3)n2)C1 (centres undefined),–,inactive: 39.4%
CCOc1ccc(-c2cc3c(=O)n(CCNC(=O)Cc4ccccc4C)ccn3n2)cc1,"inconclusive: 16.8 µM [inhibitor, single point]",–
CC(=O)Nc1ccc(CN2CC(Oc3ccc(F)c(C)c3)C2)cc1,–,inactive: -23.8% [at 43.1 µM]
CN(C)c1ccc(CN2CCC3(C2)C(=NC2CCCCC2)NC(=O)N3c2cccnc2)cc1 (centres undefined),–,inactive: -28.4%
O=C(Nc1ccncc1)C1c2ccccc2Oc2ccccc21,–,inactive: -9.75%
CCC(NC(=O)c1ccccc1NC(=O)c1ccccc1)C(=O)OC (centres undefined),"inconclusive: 15 µM [inhibitor, single point]",–
O=C1CCN(Cc2ccc(C(F)(F)F)cc2)CCCC(c2nc(-c3cccnc3)no2)CCN1 (centres undefined),"inconclusive: 21.1 µM [inhibitor, single point]",–
Cc1cc(C)n(CC(O)COc2ccccc2)n1 (centres undefined),"inconclusive: 13.3 µM [inhibitor, partial curve]",–
CCNC(=O)NC[C@@H]1C=C(C)[C@H](Cc2nnc(-c3ccccc3F)o2)C[C@H]1C(C)C,"inconclusive: 27.3 µM [inhibitor, single point]",–
O=C1c2cnc(-c3cc4ccccc4o3)nc2OCCN1c1ccccc1,"inconclusive: 34.4 µM [inhibitor, single point]",–
Cn1nc(C(=O)Nc2cccc(C(F)(F)F)c2)c2c1-c1ccccc1S(=O)(=O)C2,"inconclusive: 13.3 µM [inhibitor, single point]",–

SMILES,Potency,"activity change, negative = inhibition"
Cc1cc2[nH]c3ccccc3c2c(C)n1,"inconclusive: 21.1 µM [inhibitor, single point]",–
OC(c1cc(-c2ccc(C(F)(F)F)cc2)nc(C(F)(F)F)c1)C1CCCCN1 (centres undefined),active: 0.15 µM,–
CC(=O)N1CCc2cc(S(=O)(=O)CCC(=O)N3CCC(CCOc4ccccc4)C3)ccc21 (centres undefined),–,inactive: -21.9%
CCN1CCN(Cc2cc(C)cc(CN(C)Cc3ccccn3)c2C)CC1,"inconclusive: 16.8 µM [inhibitor, single point]",–
CCCc1ccc(OCc2nc(-c3ccc(NC(=O)c4cccs4)cc3)no2)cc1,"inconclusive: 15 µM [inhibitor, partial curve]",–
O=C1NCCCCCCN(C(=O)Nc2ccccc2)[C@H]2C[C@H](c3nc(Cc4ccccc4)no3)C[C@@H]12,"inconclusive: 21.1 µM [inhibitor, single point]",–
CCCCN(C)C(=O)c1ccc2c(c1)N(Cc1cccc(Cl)c1)C(=O)c1ccccc1S2=O (centres undefined),"inconclusive: 8.41 µM [inhibitor, partial curve, poor fit]",–
CC(C)C[C@@H]1N[C@H](C(=O)NCc2ccccn2)Cc2c[nH]c3cccc1c23,"inconclusive: 34.4 µM [inhibitor, single point]",–
COc1ccc(N(CC(=O)NCc2ccccc2)C(=O)CCC(=O)Nc2cc(C)ccn2)c(OC)c1,active: 10.6 µM,–
CCc1ccc(-c2nn(CC(=O)NC3CCCCC3)c3c2cnc2ccc(OC)cc23)cc1,active: 9.44 µM,–
CCCCOCc1cc(CN2CCN(c3cccc(Cl)c3)CC2)c(O)c2ncccc12,active: 6.68 µM,–
CCc1cc2c(CN3CCN(CCO)CC3)cc(=O)oc2cc1O,"inconclusive: 21.1 µM [inhibitor, single point]",–
CCC1Oc2ccc(NC(=O)c3ccccc3F)cc2CN(CCc2ccc(OC)c(OC)c2)C1=O (centres undefined),"inconclusive: 21.1 µM [inhibitor, single point]",–
CCc1cccc2c(C#N)cn(CC(=O)NCc3ccco3)c12,"inconclusive: 21.1 µM [inhibitor, single point]",–
CCCc1nc2ccc(NC(=O)c3cccs3)cc2c(=O)n1Cc1ccc(Cl)cc1,active: 8.41 µM,–
COc1cccc(OC)c1C(=O)Nc1cccc(-c2nc3cc(C)cc(C)c3o2)c1,–,inactive: 46.6%
CCOc1ccc(-c2nonc2NC(=O)c2ccc(C)cc2)cc1OCC,active: 1.68 µM,–
O=C(C[C@@H]1CCNC[C@@H]1Cc1cc(CC2CCCCC2)on1)NCc1ccccc1,"inconclusive: 24.3 µM [inhibitor, single point]",–
CN1CCC(Nc2ncc3ncnc(Nc4ccc(F)c(Cl)c4)c3n2)CC1,active: 10.6 µM,–
CN(CC1CCOC1)C(=O)Nc1ccc(Br)cc1 (centres undefined),–,inactive: -2.76%
CCN(CC)C(=O)Cn1c(=O)n(-c2ccc(Cl)cc2)c(=O)c2c3c(sc21)CCCCC3,–,inactive: 18.7%
COc1cc2ccccc2cc1C(=O)N1CC(C)CC(C)C1 (centres undefined),active: 2.37 µM,–
CN1Cc2ccc(NCc3ccccc3)nc2C(C)(C(=O)NCCCn2ccnc2)C1 (centres undefined),"inconclusive: 34.4 µM [inhibitor, single point]",–
